Experimental data taken from PubChem BioAssay (NCATS).
Several values for one entry are separate records, joined by “and”; a condition that tells them apart may be missing. Equal values may be shown once. This list was built around the results that the source calls inconclusive (neither active nor inactive); the mix of calls is not that of the screen. Where the call is inconclusive, the potency comes from a doubtful curve fit. Activity calls are given as the source filed them. Unless noted, calls follow the shape of the dose curve; as a rule, active = well fitted curve in the direction sought with a large enough effect; inconclusive = small, poorly fitted or top-dose-only effect, or another doubt; inactive = no such curve, though single readings can be large; an effect the other way counts as inactive or inconclusive. Where a SMILES comes first, the peptide text is derived from it. [ ]: non-standard residue; d: D form. The star is where a group is joined. Sta = CC(C)C[C@H](N)[C@@H](O)CC(=O)O; Isovaleryl = CC(C)CC(=O)*

Assays:
[1] = qHTS Screen of the MIPE 4.0 Collection Against Ewings Sarcoma (RDES) (AID 1259252); also: nearly all actives have a fitted effect of over 35% in size
Procedure, shortened: (§1)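 Cells plated in serum-containing RPMI (5% FBS) and treated with compound dilutions for 48 h. Readout luminescent viability; normalization relied on vehicle (no inhibition) and media-only columns (full inhibition).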

[2] = qHTS Screen of the MIPE 4.0 Collection Against Ewings Sarcoma (TC32) (AID 1259256); also: nearly all actives have a fitted effect of over 45% in size
Procedure, shortened: as §1

[3] = qHTS Assay for Identifying Gametocytocidal Compounds (AID 743244); details: P. falciparum 3D7 stage III-V gametocytes, alamarBlue, 72 h; max response: stronger effect = lower value
Procedure, shortened: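 Viability read-out was resazurin reduction (alamarBlue, 24 h) measured at Ex 525/Em 598 nm. Beforehand, late-stage (III-V) 3D7 P. falciparum gametocytes at 20,000 cells/well were incubated with compound 72 h at 37C under 5% CO2.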

[4] = qHTS Screen of the MIPE 4.0 Collection Against Ewings Sarcoma (EW8) (AID 1259255); also: nearly all actives have a fitted effect of over 35% in size
Procedure, shortened: as §1

[5] = P-glycoprotein substrates identified in KB-8-5-11 adenocarcinoma cell line, qHTS therapeutic library screen (AID 1346987); also: nearly all actives have a fitted effect of over 65% in size
Procedure, shortened: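 Steps: plate 500 KB-8-5-11 cells/well in DMEM + 10% FCS (colchicine removed); pin compounds in dose-response; incubate 72 h, 37 degree C, 5% CO2; add CellTiter-Glo, 5 min; read luminescence.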

[6] = Natriuretic polypeptide receptor (hNpr1) antagonism - Pilot counterscreen GloSensor control cell line (AID 1347045; calls by dose curve)
Procedure, shortened: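 Luminescence was read before and 20 min after adding 50 uM SNP, which stimulates soluble guanylyl cyclase. The HEK293 cells expressing the GloSensor cGMP sensor had been preloaded with 2% reagent for 2 h and treated with compound.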

[7] = molecular target: Atrial natriuretic peptide receptor 2 (Homo sapiens) (UniProt P20594); assay: Natriuretic polypeptide receptor (hNpr2) antagonism - Pilot subtype selectivity assay (AID 1347050; calls by dose curve)
Sequence of UniProt P20594 (P20594 whole entry, looked up): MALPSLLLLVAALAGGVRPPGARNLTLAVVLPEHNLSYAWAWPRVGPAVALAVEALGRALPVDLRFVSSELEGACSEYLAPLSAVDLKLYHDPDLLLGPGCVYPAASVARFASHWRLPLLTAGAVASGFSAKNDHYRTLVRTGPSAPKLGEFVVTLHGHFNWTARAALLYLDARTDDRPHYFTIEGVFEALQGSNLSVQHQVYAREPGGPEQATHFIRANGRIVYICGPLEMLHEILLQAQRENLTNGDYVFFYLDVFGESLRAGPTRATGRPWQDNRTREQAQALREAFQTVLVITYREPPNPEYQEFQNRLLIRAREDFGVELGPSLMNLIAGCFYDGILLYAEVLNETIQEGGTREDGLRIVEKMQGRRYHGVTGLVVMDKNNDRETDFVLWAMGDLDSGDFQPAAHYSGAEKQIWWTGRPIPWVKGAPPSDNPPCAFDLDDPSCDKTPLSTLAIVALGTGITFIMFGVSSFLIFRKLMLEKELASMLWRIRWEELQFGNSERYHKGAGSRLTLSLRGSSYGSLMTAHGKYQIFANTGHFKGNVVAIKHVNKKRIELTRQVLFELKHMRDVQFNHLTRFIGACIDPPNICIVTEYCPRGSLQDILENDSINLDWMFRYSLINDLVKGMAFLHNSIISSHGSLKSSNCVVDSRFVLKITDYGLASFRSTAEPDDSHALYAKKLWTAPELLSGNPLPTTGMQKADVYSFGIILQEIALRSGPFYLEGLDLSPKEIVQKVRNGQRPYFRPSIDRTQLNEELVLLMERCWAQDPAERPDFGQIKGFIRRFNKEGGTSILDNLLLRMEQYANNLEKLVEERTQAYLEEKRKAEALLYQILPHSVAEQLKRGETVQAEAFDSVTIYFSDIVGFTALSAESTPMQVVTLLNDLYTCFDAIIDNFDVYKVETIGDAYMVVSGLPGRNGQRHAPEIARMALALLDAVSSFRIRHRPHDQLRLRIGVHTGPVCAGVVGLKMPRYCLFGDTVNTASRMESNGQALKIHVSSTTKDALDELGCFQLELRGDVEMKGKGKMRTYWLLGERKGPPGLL
Procedure, shortened: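 Pilot selectivity screen against hNpr2: HEK293 cGMP-sensor cells are treated with LOPAC1280 compounds, then with hNppC peptide at 1 nM final. The cGMP-driven luminescence change over 20 min at room temperature is the read-out.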

[8] = qHTS assay for cell viability of the p53RE-bla HCT-116 cell line (AID 743292); details: p53RE-bla HCT-116 viability, ATP luminescence, 16 h; also: nearly all actives have a fitted effect of over 55% in size
Procedure, shortened: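 Intracellular ATP of p53RE-bla HCT-116 cells measured by luciferase luminescence following 16 h compound incubation at 37 C; DMSO-only wells served as vehicle controls.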
Potency is read from the fitted curve at half-maximal effect; tags tell the direction and shape of the fitted curve.

COc1cc(C)c(C=CC(C)=CC=CC(C)=CC(=O)O)c(C)c1C
Potency [1]: inactive
Potency [2]: inactive

O=c1[nH]c(=O)n([C@H]2C[C@@H](O)[C@@H](CO)O2)cc1I
Potency [1]: inactive
Potency [2]: inconclusive: 4.69 µM [inhibitor, partial curve]

CN1CCC(=C2c3ccccc3CC(=O)c3sccc32)CC1
Potency [3]: inconclusive: 28.2 µM [inhibitor, single point] and inconclusive: 6.31 µM [inhibitor, single point]
Potency [1]: active: 11.8 µM
Potency [4]: inconclusive: 29.6 µM [inhibitor, single point]
Potency [5]: inconclusive: 16.4 µM [inhibitor, single point]
Potency [6]: inconclusive: 23.3 µM [inhibitor, single point]
Potency [7]: inconclusive: 13.1 µM [inhibitor, single point]

CC1(C)[C@H](C(=O)O)N2C(=O)C[C@H]2S1(=O)=O
Potency [1]: inactive
Potency [2]: inactive

COc1ccc2nc3cc(Cl)ccc3c(Nc3cc(CN4CCCC4)c(O)c(CN4CCCC4)c3)c2n1
Potency [1]: inconclusive: 33.2 µM [inhibitor, single point]
Potency [4]: active: 26.4 µM
Potency [5]: inconclusive: 3.72 µM [inhibitor, full curve, poor fit]

CCc1nc(N)nc(N)c1-c1ccc(Cl)cc1
Potency [8]: inconclusive: 31.6 µM [cytotoxic, partial curve, poor fit]
Potency [1]: inconclusive: 14.8 µM [inhibitor, partial curve]
Potency [4]: inconclusive: 2.64 µM [inhibitor, full curve]
Potency [5]: inconclusive: 29.1 µM [inhibitor, single point] and inconclusive: 26.4 µM [inhibitor, single point]

CON(C)C(=O)N1N=C(c2cc(F)ccc2F)S[C@]1(CCCN)c1ccccc1
Potency [1]: inconclusive: 0.0017 µM [inhibitor, partial curve, poor fit]
Potency [2]: inactive

CN(C)[C@@H](CCOc1cccc2ccccc12)c1ccccc1
Potency [1]: inconclusive: 20.9 µM [inhibitor, partial curve]
Potency [4]: inconclusive: 23.5 µM [inhibitor, partial curve]
Potency [5]: inconclusive: 16.6 µM [inhibitor, partial curve]

CN1[C@H]2CC[C@H]1CC(OC(=O)c1c[nH]c3ccccc13)C2 (stereo partly specified)
Potency [1]: inconclusive: 33.2 µM [inhibitor, single point]
Potency [2]: active: 3.32 µM

CC(C)CC(=O)N[C@H](C(=O)N[C@H](C(=O)N[C@@H](CC(C)C)[C@@H](O)CC(=O)N[C@@H](C)C(=O)N[C@@H](CC(C)C)[C@@H](O)CC(=O)O)C(C)C)C(C)C (Isovaleryl-VV[Sta]A[Sta]-OH)
Potency [3]: inconclusive: 22.4 µM [inhibitor, single point]
Potency [1]: inactive
Potency [4]: inactive

CC(C)C[C@@H](N)[C@H](O)C(=O)N[C@H](C(=O)N[C@H](C(=O)N[C@@H](CC(=O)O)C(=O)O)C(C)C)C(C)C
Potency [1]: active: 20.9 µM
Potency [2]: inconclusive: 29.6 µM [inhibitor, partial curve, poor fit]

CCOC(=O)C=C[C@H](C[C@@H]1CCNC1=O)NC(=O)[C@@H](CC(=O)[C@@H](NC(=O)c1cc(C)on1)C(C)C)Cc1ccc(F)cc1
Potency [1]: inactive
Potency [2]: inactive

O=c1cc(O)c(Cl)c[nH]1
Potency [1]: inactive
Potency [2]: inactive

Cc1ccc(/C=N/NC(=O)c2ccccc2Oc2ccccc2)o1
Potency [1]: inconclusive: 8.33 µM [inhibitor, partial curve, poor fit]
Potency [4]: inconclusive: 37.2 µM [inhibitor, single point]
Potency [5]: inconclusive: 33.2 µM [inhibitor, single point]

CC1COC2(CCN(c3nc(=O)c4cc(C(F)(F)F)cc([N+](=O)[O-])c4s3)CC2)O1 (stereo unspecified)
Potency [1]: inactive
Potency [2]: inactive

Cc1nc2n(c(=O)c1CCN1CCC(c3noc4cc(F)ccc34)CC1)CCCC2
Potency [1]: inconclusive: 33.2 µM [inhibitor, single point]
Potency [2]: inactive

O=C(O)C=Cc1ccc(Cn2ccnc2)cc1
Potency [1]: inactive
Potency [2]: inactive

CC(C)(C)NCC(O)c1ccc(O)c(CO)c1 (stereo unspecified)
Potency [3]: inconclusive: 6.31 µM [inhibitor, single point]
Potency [1]: inactive
Potency [4]: inactive

CN[C@@H](C)[C@H]1[C@H](O)C[C@@]2(C)[C@@H]3CC[C@H]4C(C)(C)[C@@H](NC)CC[C@@]45C[C@@]35CC[C@]12C
Potency [1]: inactive
Potency [2]: inconclusive: 13.2 µM [inhibitor, partial curve, poor fit]

NC(=O)c1ncn([C@@H]2O[C@H](CO)[C@@H](O)[C@@H]2O)c1N
Potency [1]: inactive
Potency [2]: inactive

C[C@]12CC[C@H](O)CC1=CCC1C2CC[C@]2(C)C(n3cnc4ccccc43)=CCC12 (stereo partly specified)
Potency [1]: inactive
Potency [4]: inactive
Potency [5]: inconclusive: 16.4 µM [inhibitor, single point]

COC(c1ccccc1)(c1ccccc1)[C@H](Oc1nc(C)cc(C)n1)C(=O)O
Potency [1]: inactive
Potency [2]: inactive
